Test results as given in PMC7791157 (2021).

Molecular target: His-tagged SARS-CoV-2 S NTD (SARS-CoV-2)
Assay: BLI

B1: FLAG-tagged AXL (293F, purified) (receptor)
chain: not shown
Kd: 882 nM
